For test [1], the system named is murine small intestinal organoids (ENR+CD Paneth differentiation). Nature of the test: cellular ATP (CellTiter-Glo 3D) relative to plate median (log10 fold change); higher = more viable cells. To be noted: 6 d.
For test [2] the test system is unchanged. Put plainly: carbachol-stimulated secreted lysozyme activity relative to plate median (log10 fold change); higher = more Paneth cell lysozyme secretion. To be noted: 6 d, carbachol 10 µM.
Test [3] shares this test system. Nature of the test: basal (non-stimulated) secreted lysozyme activity relative to plate median (log10 fold change); higher = more Paneth cell lysozyme secretion. The conditions noted are these: 6 d.

The structures appear in SMILES notation. ± gives the standard deviation of the averaged measurements. Some of the results follow.

These results are taken from the supplement of paper PMC9046079.
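Wherever basal (non-stimulated) secreted lysozyme activity relative to plate median is given: ISC-enriched organoid precursors grown as 2.5D pseudo-monolayer on Matrigel, compound given on day 0 and day 3, plate values LOESS-normalized before median fold change, three murine donors.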
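Wherever cellular ATP (CellTiter-Glo 3D) relative to plate median is given: 2.5D pseudo-monolayer culture of ISC-enriched organoids partly embedded atop Matrigel, compound added on day 0 and again on day 3, per-plate LOESS correction before median fold change.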

As for `CC(=O)O[C@H]1C[C@@H]2CC[C@@H]3[C@H](CC[C@@]4(C)[C@H]3C[C@H]([N+]3(C)CCCCC3)[C@@H]4OC(C)=O)[C@@]2(C)C[C@@H]1[N+]1(C)CCCCC1` [Pancuronium dibromide], the “cellular ATP (log10)” value in test [1] (0.08 µM) was 0.217 ± 0.12; in test [1] (0.4 µM) it was 0.226 ± 0.062; in test [1] (2 µM), -0.0122 ± 0.22; in test [1] (10 µM), 0.0621 ± 0.21. Moreover, the “carbachol-stimulated secreted lysozyme activity (log10)” value is 0.211 ± 0.23 in test [2] (0.08 µM), 0.142 ± 0.19 in test [2] (0.4 µM), 0.109 ± 0.017 in test [2] (2 µM) and -0.0464 ± 0.16 in test [2] (10 µM). In addition, the “basal (log10)” value was 0.128 ± 0.085 in test [3] (0.08 µM), 0.0466 ± 0.074 in test [3] (0.4 µM), 0.0925 ± 0.0031 in test [3] (2 µM) and 0.0347 ± 0.13 in test [3] (10 µM).

For the compound `Cc1cc(SCc2sc(-c3ccc(C(F)(F)F)c(F)c3)nc2C)ccc1OCC(=O)O`, the “cellular ATP (log10)” value was -0.751 ± 1.3 in test [1] (0.08 µM), -0.489 ± 0.89 in test [1] (0.4 µM), -0.249 ± 0.18 in test [1] (2 µM) and -0.451 ± 0.15 in test [1] (10 µM). Moreover, the “carbachol-stimulated secreted lysozyme activity (log10)” value is 0.0977 ± 0.023 in test [2] (0.08 µM), 0.182 ± 0.02 in test [2] (0.4 µM), 0.0564 ± 0.11 in test [2] (2 µM) and -0.234 ± 0.11 in test [2] (10 µM). Further, the “basal (log10)” value in test [3] (0.08 µM) is 0.0521 ± 0.15; in test [3] (0.4 µM), 0.0447 ± 0.044; in test [3] (2 µM) it was 0.0265 ± 0.022; in test [3] (10 µM), -0.152 ± 0.14.

As to `Cc1ccc(-n2nccn2)c(C(=O)N2CCN(c3nc4cc(Cl)ccc4o3)CC[C@H]2C)c1` [Suvorexant (MK-4305)], the “cellular ATP (log10)” value amounted to 0.15 ± 0.019 in test [1] (0.08 µM), 0.249 ± 0.28 in test [1] (0.4 µM), 0.318 ± 0.31 in test [1] (2 µM) and 0.208 ± 0.28 in test [1] (10 µM). Also, the “carbachol-stimulated secreted lysozyme activity (log10)” value worked out at 0.121 ± 0.13 in test [2] (0.08 µM), 0.0555 ± 0.087 in test [2] (0.4 µM), 0.0747 ± 0.086 in test [2] (2 µM) and 0.0699 ± 0.038 in test [2] (10 µM). Moreover, the “basal (log10)” value was 0.198 ± 0.12 in test [3] (0.08 µM), 0.0797 ± 0.088 in test [3] (0.4 µM), 0.106 ± 0.091 in test [3] (2 µM) and 0.0639 ± 0.12 in test [3] (10 µM).

Take `COc1cc(-n2c(=S)[nH]c3ccccc3c2=O)c(Cl)cc1Cl` [Mdivi-1]: the “cellular ATP (log10)” value was 0.00809 ± 0.13 in test [1] (0.08 µM), -0.0312 ± 0.28 in test [1] (0.4 µM), -0.112 ± 0.13 in test [1] (2 µM) and -0.527 ± 0.087 in test [1] (10 µM). In addition, the “carbachol-stimulated secreted lysozyme activity (log10)” value in test [2] (0.08 µM) is 0.0428 ± 0.016; in test [2] (0.4 µM), 0.0977 ± 0.045; in test [2] (2 µM), -0.0492 ± 0.23; in test [2] (10 µM) it was -0.462 ± 0.047. Also, the “basal (log10)” value in test [3] (0.08 µM) was 0.177 ± 0.18; in test [3] (0.4 µM), 0.156 ± 0.25; in test [3] (2 µM), -0.0222 ± 0.17; in test [3] (10 µM) it was -0.268 ± 0.096.

For `C=C1C[C@@H]2[C@H](CC[C@]3(C)C(=O)CC[C@@H]23)[C@@]2(C)C=CC(=O)C=C12` [Exemestane], the “cellular ATP (log10)” value is -0.0459 ± 0.41 in test [1] (0.08 µM), -0.407 ± 0.81 in test [1] (0.4 µM), 0.17 ± 0.25 in test [1] (2 µM) and -0.167 ± 0.45 in test [1] (10 µM). The “carbachol-stimulated secreted lysozyme activity (log10)” value amounted to 0.143 ± 0.082 in test [2] (0.08 µM), 0.16 ± 0.069 in test [2] (0.4 µM), 0.0676 ± 0.11 in test [2] (2 µM) and 0.062 ± 0.1 in test [2] (10 µM). For the same compound, the “basal (log10)” value in test [3] (0.08 µM) came to 0.0513 ± 0.19; in test [3] (0.4 µM) it was 0.0789 ± 0.19; in test [3] (2 µM), 0.00143 ± 0.11; in test [3] (10 µM), 0.00688 ± 0.1.

Turning to `CN1CCCCC1Cn1cc(C(=O)c2cc([N+](=O)[O-])ccc2I)c2ccccc21` (centres undefined), the “cellular ATP (log10)” value in test [1] (0.08 µM) was 0.159 ± 0.19; in test [1] (0.4 µM), -0.0539 ± 0.27; in test [1] (2 µM), -0.0616 ± 0.06; in test [1] (10 µM) it was -0.000732 ± 0.11. Besides, the “carbachol-stimulated secreted lysozyme activity (log10)” value in test [2] (0.08 µM) is 0.0442 ± 0.23; in test [2] (0.4 µM), 0.147 ± 0.32; in test [2] (2 µM) it was 0.0123 ± 0.15; in test [2] (10 µM) it was -0.121 ± 0.041. For the same compound, the “basal (log10)” value in test [3] (0.08 µM) is 0.0521 ± 0.062; in test [3] (0.4 µM) it was 0.00402 ± 0.067; in test [3] (2 µM) it was -0.0142 ± 0.036; in test [3] (10 µM), -0.00317 ± 0.0059.

With `CCCN1CCO[C@@H]2c3cc(O)ccc3OC[C@H]21`, the “cellular ATP (log10)” value was determined as 0.313 ± 0.017 in test [1] (0.08 µM), 0.401 ± 0.092 in test [1] (0.4 µM), 0.273 ± 0.11 in test [1] (2 µM) and 0.285 ± 0.17 in test [1] (10 µM). Also, the “carbachol-stimulated secreted lysozyme activity (log10)” value in test [2] (0.08 µM) was found to be 0.0885 ± 0.0098; in test [2] (0.4 µM) it was 0.31 ± 0.08; in test [2] (2 µM), 0.148 ± 0.068; in test [2] (10 µM) it was 0.0842 ± 0.0067. The “basal (log10)” value in test [3] (0.08 µM) worked out at 0.0909 ± 0.058; in test [3] (0.4 µM) it was 0.144 ± 0.046; in test [3] (2 µM), 0.0891 ± 0.018; in test [3] (10 µM), 0.113 ± 0.038.
